# Results reported in PubChem BioAssay AID1347073 (National Center for Advancing Translational Sciences (NCATS), 2019).
# The campaign covered roughly 45,000 compounds. About 200 (0.44%) were called active. Roughly 7% stayed inconclusive and do not appear here. Calls come from the whole dose curve; as a rule, active = well fitted activation curve with a large enough effect; inconclusive = small, poorly fitted or top-dose-only effect; inactive = no such curve, though single readings can be large or run the other way. The list shows a part of the results.
# Assay: qHTS of TDP-43 Inhibitors: NCGC Sytravon Library Screen; note: 0% is about no effect; nearly all actives have a fitted effect of over 55% in size
# Conditions: yeast TDP-43 toxicity rescue, BacTiter-Glo growth, 24 h; series mostly up to 46.1 µM; growth rescue (activation): at the top concentration
# Summary of the method: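 TDP-43-expressing yeast, pregrown in raffinose, seeded at OD600 0.02 in galactose medium with compound for 24 hr at 30 deg C. Growth read by BacTiter-Glo luminescence, so rescue of toxicity appears as activation.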
row,SMILES,growth rescue (activation)
1,O=C(CCNC(=O)c1ccc([N+](=O)[O-])cc1)Nc1ccc(F)cc1,inactive: 0.597%
2,CCc1cc2ccc(C)cc2nc1SCC(=O)NC1CCCC1,inactive: -22.6%
3,O=c1cc(CSc2nnc(COc3cccc4ccccc34)o2)c2ccccc2[nH]1,inactive: 17.3%
4,CCC1(C(=O)c2ccccc2)C(c2cccc([N+](=O)[O-])c2)C1(C(=O)OC)C(=O)OC (stereo not given),inactive: -33.5%
5,O=C(c1ccccc1F)N(Cc1ccc2c(c1)OCO2)Cc1cc2cc3c(cc2n2nnnc12)OCO3,inactive: -9.82%
6,COc1ccc(-n2nnnc2SCC(=O)NC2CCCC2)cc1OC,inactive: 6.87%
7,Cn1c(SCC(=O)c2ccccc2)nnc1-c1ccccn1,inactive: -7.31%
8,CC1(C(=O)Nc2ccc(F)c(Cl)c2)Cc2c(-c3cccc(C(F)(F)F)c3)ccnc2O1 (stereo not given),inactive: -0.863%
9,O=C(COC(=O)Cc1ccc(S(=O)(=O)N2CCOCC2)s1)Nc1ccccc1,inactive: -9.19%
10,COc1ccc(OC)c(NC(=O)C2(C)CCN2Cc2ccccc2OC(F)F)c1 (stereo not given),inactive: 5.19%
11,COc1cccc(NC(=O)CN(C)C(C)C(=O)N2CCCCC2)c1 (stereo not given),inactive: -15.6%
12,CN1CCN(c2nc3c(c(=O)[nH]c(=O)n3C)n2Cc2cccc3ccccc23)CC1,inactive: 26.3%
13,Cc1ccc(NC(=O)Nc2cnc3ccccc3c2)cc1,inactive: 8.39%
14,CSc1ccccc1C(=O)Nc1cccc([N+](=O)[O-])c1C,inactive: 7.49%
15,Cc1ccc(N(C)S(=O)(=O)c2cccc(C(=O)Nc3nnc(C4CC4)s3)c2)cc1,inactive: -4.43%
16,CC(C)c1ccc(NC(=O)COC(=O)/C=C/c2cccc([N+](=O)[O-])c2)cc1,inactive: 10.6%
17,CCn1c(SCC(N)=O)nc2sc3c(c2c1=O)CCN(C)C3,inactive: -0.0416%
18,Cc1cc(C)cc(CC2CC(=O)N(c3nc(C)cc(C)n3)C2=O)c1 (stereo not given),inactive: 18.1%
19,O=C(NNC(=O)C1[C@H]2CCCC[C@@H]12)c1ccc(=O)oc1 (stereo not given in full),inactive: -12.4%
20,COc1ccccc1-c1cnc(C(O)c2ccc(F)c(C)c2)[nH]1 (stereo not given),inactive: 7.33%
21,O=C(CSc1ccc2c(c1)OCCO2)Nc1cccnc1,inactive: 5.77%
22,CCOc1ncccc1C(=O)Nc1ccccc1F,inactive: 25.4%
23,CCCC(O)(c1ccc(Br)cc1)C(CN1CCOCC1)c1ccc(Cl)cc1 (stereo not given),inactive: 7.89%
24,COc1ccc(NC(=O)COC(=O)C2CCC(C(C)(C)C)CC2)c([N+](=O)[O-])c1 (stereo not given),inactive: 7.44%
25,O=C(CSCc1cnn(-c2ccccc2)c1-n1cccc1)NCc1cccnc1,inactive: 3.94%
26,CCNC(=O)NC(=O)COC(=O)CCc1nc(=O)c2ccccc2n1C,inactive: 7.85%
27,CNC(C)c1ccc(S(N)(=O)=O)cc1 (stereo not given),inactive: 5.08%

row,SMILES,growth rescue (activation)
1,Cc1ccc(C2=NNC(c3ccc(Cl)cc3)=Nc3ccccc32)o1,inactive: 20.2%
2,CCOC(=O)N1CCC(N(CCN(C)C)C(=S)Nc2cccc(SC)c2)CC1,inactive: -2.37%
3,Nc1cc2c(cc1[N+](=O)[O-])OCCO2,inactive: 0.751%
4,Cc1ccccc1N(CC(=O)NCCc1ccccc1)C(=O)CCC(=O)Nc1ccccn1,inactive: -3.76%
5,COc1ccc(C(=O)O/N=C(\N)Cc2ccc(Cl)c(Cl)c2)cc1OC,inactive: -94.2%
6,CCCC(=O)N(Cc1cc(=O)[nH]c2ccccc12)c1ccccc1OC,inactive: 10.1%
7,Cc1ccc(C)c(N2CCN(C(=O)CN(C)S(=O)(=O)c3cnc[nH]3)CC2)c1,inactive: -28.9%
8,O=C(O)c1cc(NS(=O)(=O)c2ccc(N3CCOCC3)c([N+](=O)[O-])c2)cc(C(=O)O)c1,inactive: -2.61%
9,O=c1c2ccccc2nc2c3ccccc3c(NCc3ccccn3)nn12,inactive: -5.69%
10,COc1ccccc1/C=C/C(=O)Nc1ccc(S(=O)(=O)Nc2cc(C)nc(C)n2)cc1,inactive: 10.2%
11,CCNC(=O)C1(C)CCN1C(=O)CCc1cccc(Cl)c1 (stereo not given),inactive: -7.81%
12,CCOC(=O)C1(Cc2ccccc2)CCN(Cc2ccc3c(c2)OCCO3)CC1,inactive: 7.58%
13,COc1ccc(CN(CC2CCC(C(=O)O)CC2)C(=S)Nc2cc(C)cc(C)c2)cc1 (stereo not given),inactive: 2.06%
14,CC(=O)Nc1ccc(NC(=O)CC23CC4CC(CC(C4)C2)C3)cc1,inactive: 3.79%
15,O=C(OC1CCOC1=O)c1ccc(NS(=O)(=O)c2cccs2)cc1 (stereo not given),inactive: -1.52%
16,COC(=O)c1c(N2C(=O)[C@H]3[C@@H](C2=O)[C@]2(C(=O)Nc4c(C)cc(C)cc42)N2CCC[C@@H]32)sc(C)c1C,inactive: 5.59%
17,CC1(C)CC(=O)c2cc(C(=O)NCc3ccco3)c(=O)n(-c3ccccc3)c2C1,inactive: -0.425%
18,Cc1cc2ccccn2c1C(=O)Nc1ccccc1,inactive: 17.1%
19,COc1ccc(C(=O)NCC(=O)N/N=C/c2ccco2)cc1OC,inactive: -7.61%
20,O=C(O)c1ccc(Cn2c(=S)[nH]c3cc(Cl)ccc3c2=O)cc1,inactive: 12%
21,O=S(=O)(c1ccc2c(c1)OCCO2)N1CCN(c2ncnc3sccc23)CC1,inactive: 35.5%
22,Cc1ccc(OCC(=O)N(Cc2ccc(N(C)C)cc2)C2CCS(=O)(=O)C2)cc1C (stereo not given),inactive: -13.6%
23,Cc1ccc(S(=O)(=O)N2CCOCC2)cc1NC(=O)CN1C(=O)NC2(CCCC2)C1=O,inactive: 2.41%
24,O=C1C2Sc3[nH]c(=O)sc3C(c3cc([N+](=O)[O-])ccc3O)C2C(=O)N1c1ccccc1 (stereo not given),inactive: -3.27%
25,COCCCN1CN=C(NS(=O)(=O)c2ccc(C)cc2)NC1,inactive: 9.21%
26,Cc1ccc(CSc2ncnc3ccccc23)cc1,inactive: 9.19%
27,O=C(COC(=O)c1ccccc1Nc1ccccc1)Nc1ccccc1,inactive: 11%

row,SMILES,growth rescue (activation)
1,CC(=O)c1ccc(OCC(O)CN2CCN(c3ccc(F)cc3)CC2)cc1 (stereo not given),inactive: 0.37%
2,CCSc1nnc(NC(=O)CCc2ccc(OC)cc2)s1,inactive: -2.86%
3,O=C(O)c1ccc(/C=N/Nc2ccc(S(=O)(=O)N3CCCC3)cc2[N+](=O)[O-])cc1,inactive: -3.15%
4,CCOc1ccc(S(=O)(=O)Nc2ncn[nH]2)cc1,inactive: 14.8%
5,Cc1ccccc1CN1C(=O)c2ccccc2S1(=O)=O,inactive: 16.4%
6,COc1ccc(NC(=O)c2cncc(Br)c2)cc1S(=O)(=O)N1CCCCC1,inactive: 9.3%
7,Cc1ccc2nc(CCl)[n+]([O-])c(-c3ccccc3)c2c1,inactive: -2.95%
8,Cc1c(NC(=O)COc2ccc3ccccc3c2)c(=O)n(-c2ccccc2)n1C,inactive: -9.39%
9,Cc1ccc(O)c(C(=O)c2cnn(C(=O)COc3ccc(Cl)cc3)c2)c1,inactive: 0.905%
10,NC1=NS(=O)(=O)NC1c1cccc(F)c1 (stereo not given),inactive: 0.313%
11,Nc1cccc(P(=O)(c2ccccc2)c2ccccc2)c1,inactive: 13.9%
12,CCOC(=O)C1CCN(C(=O)c2ccccc2NS(=O)(=O)c2ccc(C)cc2)CC1,inactive: 19.2%
13,Cc1ccccc1/C=C/c1nc2ccccc2c(=O)n1Cc1ccccc1,inactive: -3.2%
14,CCOc1ccc(-n2c(=S)sc3c(=O)[nH]c(SCC(=O)C(C)(C)C)nc32)cc1,inactive: -3.83%
15,O=C(O)c1cc(NN=C2c3ccccc3-c3ccccc32)ccc1Cl,inactive: -93.7%
16,CN(C)S(=O)(=O)c1cccc(NC(=O)C2Cc3ccccc3CN2C(=O)c2ccco2)c1 (stereo not given),inactive: 8.16%
17,CCOc1ccccc1N1CCN(C(=O)NCc2ccc(F)cc2)CC1,inactive: 11.7%
18,O=C(CCC1CCCN(C2C3CC4CC(C3)CC2C4)C1)NCc1ccc(F)c(F)c1 (stereo not given),inactive: -7.85%
19,CCCN(CCC)CCCNC(=O)Cn1cnc2sc(C)c(S(=O)(=O)N3CCC(C)CC3)c2c1=O,inactive: 15.4%
20,O=C(CNC(=O)C1COc2ccccc2O1)N/N=C\c1ccccc1Cl (stereo not given),inactive: -12.4%
21,NS(=O)(=O)c1ccc(NC(=O)CSc2nc3ccccc3n2-c2ccccc2)cc1,inactive: 9.74%
22,COc1ccc(Br)cc1CNC(=O)c1ccc2c(c1)N(Cc1ccc(C)cc1)CCS2,inactive: -1.09%
23,CCn1c(CCl)nc2cc(S(=O)(=O)N3CCOCC3)ccc21,inactive: -11.8%
24,Cc1ccc2c(c1)N(Cc1ccc([N+](=O)[O-])cc1)C=NS2(=O)=O,inactive: 6.38%
25,CCOCCCNC(=O)C1CCN(S(=O)(=O)N2CCCC2)CC1,inactive: -8.09%
26,COC(=O)c1c(C)nn(-c2ccc(F)cc2)c1-n1cccc1,inactive: 18.9%
27,Fc1ccccc1Cc1noc(CN2CCC(OCc3cccnc3)CC2)n1,inactive: -24.1%

row,SMILES,growth rescue (activation)
1,C=CCNC(=S)Nc1nc2c(cc1C(=O)OCC)CCCC2,inactive: -6.19%
2,COc1ccc(C2CC(c3ccc4ccccc4c3)=NN2C(=O)CN2C(=O)CCC2=O)cc1 (stereo not given),inactive: 6.04%
3,O=C(C1CCCN(CCCc2ccccc2)C1)N1CCCCC1 (stereo not given),inactive: 0.794%
4,COc1cc2c(cc1OC)C1=C(C#N)CCC(=NC(=O)c3ccc(Cl)cc3)N1CC2,inactive: 19.8%
5,COc1ccccc1NC(=O)CC(NC1CCCCC1)C(=O)O (stereo not given),inactive: 19.8%
6,CCCCNC(=O)NS(=O)(=O)c1ccc(NC(=O)C(NC(N)=O)C(C)CC)cc1 (stereo not given),inactive: -5.17%
7,COCCOC(=O)C1=C(C)NC(=O)NC1c1ccc(-c2cc(Cl)ccc2Cl)o1 (stereo not given),inactive: -9.59%
8,O=C(NC(=S)Nc1ccc(CN2CCCCC2)cc1)c1ccco1,inactive: -10.5%
9,CCCCNC(=O)c1ccc2nc(CC)c(N(C)Cc3ccc(OC)cc3)n2c1,inactive: 8.32%
10,CC1CC(C)CN(CCOc2cccc3ccccc23)C1 (stereo not given),inactive: 5.28%
11,C=CCOc1ccc(/C=C/C(=O)OCC(=O)NNC(=O)c2ccccc2F)cc1,inactive: 17.3%
12,CCOc1ccc(CN2CCN(Cc3cccn3-c3ncccn3)CC2CCO)cc1 (stereo not given),inactive: 4.37%
13,Cc1cc(C)n2c(SCC(=O)N(C)C3CCCCC3)nnc2n1,inactive: 3.31%
14,CC(C)Cc1csc(NC(=O)c2ccc(F)cc2)c1C(=O)O,inactive: 0.467%
15,O=C(NC(Cc1ccccc1)C(=O)O)/C(=C/c1ccc(Cl)cc1)NC(=O)c1ccco1 (stereo not given),inactive: -12.1%
16,O=C(Nc1ccccc1Cl)NC1(C(=O)NCc2ccncc2)CCCCC1,inactive: -19.4%
17,CC(NC(=O)/C=C/c1ccccc1[N+](=O)[O-])C1CC2CCC1C2 (stereo not given),inactive: 6.23%
18,Cc1nc2nc(SCC(=O)NCc3ccco3)nn2c(C)c1Cc1ccccc1,inactive: -22.6%
19,CS(=O)(=O)c1ccc(Oc2ccc(-c3nnco3)cc2)c([N+](=O)[O-])c1,inactive: -2.35%
20,C(=C\c1ccccc1)/CNCC1CCCO1 (stereo not given),inactive: 13%
21,Cc1cc(Oc2ccc([N+](=O)[O-])cc2)nc(N2CCOCC2)n1,inactive: 6.14%
22,CC1(C)SC(=S)N(NC(=O)Nc2cccc3ccccc23)C1N(O)C(=O)Nc1ccccc1 (stereo not given),inactive: 14%
23,C/C(=N\NC(=O)c1cccc(S(=O)(=O)Nc2cccc(Cl)c2)c1)c1cccs1,inactive: -3.42%
24,O=S(=O)(c1ccc2ccccc2c1)N(CC1CO1)c1ccccc1 (stereo not given),inactive: 7.54%
